Where a chain is given by its changes, count along the chain named. The list shows a part of the results.
T1: UNK ZnF1-3 (human, UniProt Q9C0B0 31-174)
T1 sequence: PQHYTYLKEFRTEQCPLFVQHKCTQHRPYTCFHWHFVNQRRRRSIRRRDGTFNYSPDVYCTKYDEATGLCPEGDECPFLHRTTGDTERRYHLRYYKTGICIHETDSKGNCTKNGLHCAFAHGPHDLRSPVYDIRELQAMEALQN

B1: chr4:144460044:144460045:+_ENSG00000153147_ENST00000283131|hu_mus|FALSE|FALSE (ssRNA)
RNA: GGGAGUUCUACAGUCCGACGAUCACGGUCCAUAGCCUGAAGAUCAACUUGCGGAUUCCAAUCUGAGUCAUAUAAAAUGACUACAUCAGCAGUUGCAAGAUUGAUGCCCAGACCACCAGCACGUGUGCUUAGCAUAAAUACAAACAACAGAGGAUUGAGCAUCA
B2: chr5:4754414:4754415:-_ENSMUSG00000044674_ENSMUST00000054294|mus_hu|FALSE|FALSE (ssRNA)
RNA: GGGAGUUCUACAGUCCGACGAUCGUAAUAAAAUGUUGAAAGUGUACAACUUUUACAUUUUAAAGUUUCUGAUAUAUGUCUAGUUAUUUGAUUAAAAAUAAGAAAAUAGCACUUCAUUUUGAGGAAGUCCAUGACACUGAAAUACAACAGAGGAUUGAGCAUCA
B3: 134750436_134758669_1075_CDS_ENSMUSG00000060261_ENSMUST00000173341|mouse|control|control (ssRNA)
RNA: GGGAGUUCUACAGUCCGACGAUCCUCGUUGCCUUCUGAGGAGUGAUGGCUUCCUUGAAUGUUAUACUGAUAGUAAUCAGGGUCUUCUGACUCCUCCUUCACUGUCACAGCGGCCAUUUCCAGAGAAAUGCCAGAAUCUUCUGUCAACAGAGGAUUGAGCAUCA
B4: chr14:22612544:22612545:+_ENSMUSG00000021770_ENSMUST00000119430|mus_hu|motif|central (ssRNA)
RNA: GGGAGUUCUACAGUCCGACGAUCAAGCCAGGCAUCUAAGAACAACCUAGGGGGAGAACGCAAAGUUACUCAUUUUCAACAACGGUUAUAUAUUUAAUCACAAAUUCAUUAGAAAGAUAGUAUUCAUCCAAUUAGUCUUUUCAUCAACAGAGGAUUGAGCAUCA
B5: 160585562_160585682_211_3pUTR_ENSG00000136536_ENST00000259050|human|control|control (ssRNA)
RNA: GGGAGUUCUACAGUCCGACGAUCUAUUCAGAAUCCAAUCUAAAUGAAGAGUCUCUUGAGUGAUAGGUAUCAUUUAAACUACUUCCUCUGCUUCCAGACAUCAUCCUAGCACUUAAGGAGCUGGAAGGUUGAACAGAAAUUCUUCAACAGAGGAUUGAGCAUCA
B6: chr5:128440902:128440903:+_ENSG00000066583_ENST00000173527|hu_mus|hu_hu_hu_mus_True|1_18 (ssRNA)
RNA: GGGAGUUCUACAGUCCGACGAUCUUGAACGGUGCUGCCAAGUCCUUUGGGGUAUUGUUCCGUUAUGAUAACUGGAAUCCCUAAGAUCCGAGCUCCUUGCAACAGUCUCUGUCCCACGCUAAUAAUAUCCCCAAAGUACUUGAUCAACAGAGGAUUGAGCAUCA
B7: chr5:128440902:128440903:+_ENSG00000066583_ENST00000173527|hu_mus|hu_hu_hu_mus_True|48_68 (ssRNA)
RNA: B6 RNA with U72A, A90G, U93C, G117A, A123G, A126G, C138U
B8: chr7:151048522:151048523:+_ENSG00000013374_ENST00000566856|hu_mus|hu_hu_hu_mus_True|78_108 (ssRNA)
RNA: GGGAGUUCUACAGUCCGACGAUCCUGCUUCUUAUUUAUUACGAUCUUGAUGUAAUUUUCUUGAAGUCCGAAAGUUUCAGCUAUUUGACACCUCAGGUCUCUACCAGUGACAUGCAAGCGGGUCUCCAACAAGCUUUUCUUAUCCAACAGAGGAUUGAGCAUCA
B9: chr13:100191535:100191536:-_ENSMUSG00000052727_ENSMUST00000064762|mus_hu|motif|central (ssRNA)
RNA: GGGAGUUCUACAGUCCGACGAUCAGAGGGGAUAUUGCACACAAAUAUCAUAAAAGCACUACAUAUUACUUUCACUGGAAACGGAUUUUCUACAUUAGAUAUGACUGGAUAGGAUAGAAGUGAUGCAGGAUUAUAAGACAUAAUCAACAGAGGAUUGAGCAUCA
B10: chr4:115894766:115894767:+_ENSMUSG00000028698_ENSMUST00000030464|mus_hu|mus_mus_mus_hu_True|28_28 (ssRNA)
RNA: GGGAGUUCUACAGUCCGACGAUCUUCCACACGGAAAUGUACUUCGGGUUUUCCAACGGCCAGUACCAGUCCGGCCAAACUACCCGAACAGGGUCCUCCCCCUCUCUUCUCUCCUCCACAACAAAAUGCCCCCGAACUUUCAAGCAACAGAGGAUUGAGCAUCA
B11: 43511743_43514969_1551_CDS_ENSMUSG00000038546_ENSMUST00000144326|mouse|control|control (ssRNA)
RNA: GGGAGUUCUACAGUCCGACGAUCCUCCGGUACAGUCAAGCUGGAUAGCUGGUGUUUACUAUGGCAAUAUGAUUGGUGUGCUUUAUUUGAUAUUACACCAUUGCUACAACUUUCAAAACCAGAAAAAUGUGCAGUGCUGCUUUUCAACAGAGGAUUGAGCAUCA
B12: chr14:76904430:76904431:+_ENSMUSG00000022010_ENSMUST00000022587|mus_mus|FALSE|FALSE (ssRNA)
RNA: GGGAGUUCUACAGUCCGACGAUCCCGUGGAAAAAAAAGAGAGAGGGCGGGAGGGAGCAAGCUCCAGCAGCCUGGUUCAAACUAGAUAAAACCGCCUAGCUGUCUGCAGCUCAGGGCGUGAGAACGGUGGUGCUGGCUCGAGUGCAACAGAGGAUUGAGCAUCA
B13: chr4:144460044:144460045:+_ENSG00000153147_ENST00000283131|hu_mus|hu_hu_hu_mus_False|28_58 (ssRNA)
RNA: B1 RNA with G78U, C108A
B14: 71486823_71487036_1032_3pUTR_ENSMUSG00000031328_ENSMUST00000144429|mouse|control|control (ssRNA)
RNA: GGGAGUUCUACAGUCCGACGAUCGACUUGUCCACAUACACCUCAAAGGGGCUCUUGGCAAUAUGUUGGCCAGCAAAGAGCACAGUCACCUUAUGAGUCCCUGUCACUUCAGGGACAUACCAGACAGAGAAAGUACGGUUCUUGCAACAGAGGAUUGAGCAUCA
B15: chr14:63888807:63888808:-_ENSG00000154001_ENST00000337537|hu_hu|FALSE|FALSE (ssRNA)
RNA: GGGAGUUCUACAGUCCGACGAUCUUCAUUGCUGUCACUAGGAGGGAGAGUUCUGAAUAUAUUGCAAGAUACCAUUCUAACUACUUCAGGGUAAGUCUGCUCUGUCAAACAGCCUCUGCUUAUUGUAAUGUAGUCCACCAGUUCCAACAGAGGAUUGAGCAUCA
B16: chr7:141438946:141438947:+_ENSG00000106028_ENST00000265304|hu_mus|hu_hu_hu_mus_True|8_18 (ssRNA)
RNA: GGGAGUUCUACAGUCCGACGAUCGACGAAAUACCUGUAACACAGGUCUUCGAAACAUGGCUUCUGUUUUUCUUACAACCUAAUCUUUAGGCUUUUCCUAAAGGAAAGAAAGAAAAGGCCCAGCCACGCAGGGGAUCAACUACACAACAGAGGAUUGAGCAUCA
B17: 71823346_71842746_418_3pUTR_ENSG00000166747_ENST00000299980|human|control|control (ssRNA)
RNA: GGGAGUUCUACAGUCCGACGAUCCCGGAUCAGCUCCCGCAAUCUGAUGGGGGCUGGCAUCCUCGGCCCGAAACCUCGAAUGAAACCAGCAGCUCCGGGGGCGGCGGCAGCAGUGGCAGCAGGAACCGAACAUCCAAAAUGGCGCAACAGAGGAUUGAGCAUCA
B18: 104053121_104054612_280_3pUTR_ENSG00000155097_ENST00000518738|human|control|control (ssRNA)
RNA: GGGAGUUCUACAGUCCGACGAUCAGCCAGUUCAUCUGACAAGCCAACCAAGACAUCCAACGUGCCAACCUUUAAGUCAGGAAUAUUGAACUUGGAAGUGACAGCAAGAUUAUUGUUCUUUGAAGUUGCCGCAUGCAAUUUCUCCAACAGAGGAUUGAGCAUCA
B19: chr1:201104638:201104639:-_ENSG00000116857_ENST00000367334|hu_mus|motif|central (ssRNA)
RNA: GGGAGUUCUACAGUCCGACGAUCCAGAGACCUACAGAGACCCAAUCACACUCCCUCGUUAUAACAGUCGAGUACAUUUCGGGAGAGGGAGAAGGAUAAACGCCAUGGGCAUUUGAAGGGAAGACCCAGGGAAGACUGCAGUGACAACAGAGGAUUGAGCAUCA
B20: chr5:138721144:138721145:-_ENSMUSG00000029510_ENSMUST00000161827|mus_mus|FALSE|FALSE (ssRNA)
RNA: GGGAGUUCUACAGUCCGACGAUCUAGAACCCCGUUCUCGGCCGCGGGACGUCUCGAAGAAAAGAAUAGGAGCGUGUCCCCUAAAACUGAACAACCCCAGCACCGUAGCAGGACCAGGAGGCAUCUGCGGAGACAAUGGGAGCCCAACAGAGGAUUGAGCAUCA
B21: chr2:187371472:187371473:+_ENSG00000065548_ENST00000337859|hu_hu|motif|central (ssRNA)
RNA: GGGAGUUCUACAGUCCGACGAUCACUGGCUACAGUAAUACCUGUUUCAUCUACAUCUCUUGGGAUGUACAGGCUUAAAUCGGUGUCAUUUACACUCACUGAAUCAUCAACCUCAUCACCACCUGUUCCCUGGGUGUAGCGGGUCAACAGAGGAUUGAGCAUCA
B22: chr16:33500690:33500691:+_ENSMUSG00000022811_ENSMUST00000165418|mus_hu|FALSE|FALSE (ssRNA)
RNA: GGGAGUUCUACAGUCCGACGAUCAACAAGAAAUGUUUGUCUGCUUUAGUUUGUUUCCUACCAAAGUUUAAGUGAAAAAAGGAAACACGGUUUUUAUUUGCAGAAUAUAGCAAAACAACUGGAAAAUUAUUUCCCUGAAAUAAACAACAGAGGAUUGAGCAUCA

Biological target: T1, UNK ZnF1-3
Test: nsRBNS (natural sequence RNA bind-n-seq); RBNS binding buffer (assumed for nsRBNS): 25 mM Tris pH 7.5, 150 mM KCl, 3 mM MgCl2, 0.01% Triton X-100, 500 ug/ml BSA, 20 U/ml SUPERase-In, 4 C; UNK is unkempt and MSI1 is Musashi-1; names of the RNAs are library labels; protein concentration not given here; high values mean tight binding

Binder	binding signal [enrichment R]
B1	0.907
B2	0.629
B3	0.714
B4	1.81
B5	0.98
B6	0.526
B7	0.832
B8	0.768
B9	1.42
B10	1.12
B11	0.763
B12	1.68
B13	1.12
B14	0.906
B15	0.849
B16	0.377
B17	1.03
B18	1.04
B19	1.55
B20	1.6
B21	0.627
B22	0.917
